From the supplement of paper PMC7826260
The other results are listed elsewhere or left out. Each Rep nickase domain was tested in vitro on the same pool of single strands for 1 h at 37 °C with 3 µM enzyme; only the middle of the 90-letter strands is printed. Values are log2 of uncut reads against the no-enzyme pool; the lower, the more was cut; hits are not called. The scaling is to total reads; values above 0 arise when much of the pool is cut.

Legend:
Test in all cases: uncleaved DNA left, log2 of reads against the no-enzyme library (log2 ratio); higher = less cleavage (more negative = more Rep cleavage of the k-mer); sequences stand for … in CTCGTCCG…ACCGGAGA
[1] = test system: T1, Rep nickase domain of Muscovy duck circovirus
T1 sequence (residues 1-111, tag not shown): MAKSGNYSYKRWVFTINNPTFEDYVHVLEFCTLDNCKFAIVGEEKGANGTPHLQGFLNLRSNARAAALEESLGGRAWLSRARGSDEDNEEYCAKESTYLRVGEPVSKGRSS
Procedure: (§1)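 A pool of 90-nt single-stranded DNAs with seven random bases just before the constant AC of the nick site (name = the seven bases) was cut by 3 µM recombinant His6-SUMO-tagged Rep nickase domain (300 nM DNA, 50 mM HEPES pH 8.0, 50 mM NaCl, 1 mM MnCl2, 1 h, 37 °C, three replicates). Uncut DNA was amplified and sequenced.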

[2] = test system: T2, Rep nickase domain of banana bunchy top virus
T2 sequence (residues 1-94, tag not shown): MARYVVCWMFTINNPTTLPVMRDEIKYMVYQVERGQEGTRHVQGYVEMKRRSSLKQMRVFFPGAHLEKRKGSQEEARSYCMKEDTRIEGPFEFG
Procedure: as §1

[3] = test system: T3, Rep nickase domain of cabbage leaf curl virus
T3 sequence (residues 1-116, tag not shown): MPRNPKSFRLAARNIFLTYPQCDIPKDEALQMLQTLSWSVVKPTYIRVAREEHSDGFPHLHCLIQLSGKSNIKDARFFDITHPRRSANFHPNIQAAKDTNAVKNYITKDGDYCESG
Procedure: as §1

[4] = test system: T4, Rep nickase domain of chickpea chlorotic dwarf virus
T4 sequence (residues 1-124, tag not shown): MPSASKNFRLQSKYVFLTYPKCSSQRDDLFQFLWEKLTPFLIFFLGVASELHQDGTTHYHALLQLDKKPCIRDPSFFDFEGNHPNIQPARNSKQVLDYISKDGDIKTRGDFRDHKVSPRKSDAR
Procedure: as §1

[5] = test system: T5, Rep nickase domain of faba bean necrotic yellows virus
T5 sequence (residues 1-98, tag not shown): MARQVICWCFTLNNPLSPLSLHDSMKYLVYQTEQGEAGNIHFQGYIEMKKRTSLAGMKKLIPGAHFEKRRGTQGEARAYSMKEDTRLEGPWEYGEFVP
Procedure: as §1

[6] = test system: T6, Rep nickase domain of maize striate mosaic virus
T6 sequence (residues 1-117, tag not shown): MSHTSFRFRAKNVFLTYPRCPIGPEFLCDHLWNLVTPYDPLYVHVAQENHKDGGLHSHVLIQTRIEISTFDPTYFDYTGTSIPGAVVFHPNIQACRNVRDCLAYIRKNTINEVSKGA
Procedure: as §1

[7] = test system: T7, Rep nickase domain of porcine circovirus 2
T7 sequence (residues 2-116, tag not shown): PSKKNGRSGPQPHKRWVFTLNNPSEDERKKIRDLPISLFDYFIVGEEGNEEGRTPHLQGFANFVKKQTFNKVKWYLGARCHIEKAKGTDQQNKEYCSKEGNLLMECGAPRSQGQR
Procedure: as §1

[8] = test system: T8, Rep nickase domain of tomato golden mosaic virus
T8 sequence (residues 1-124, tag not shown): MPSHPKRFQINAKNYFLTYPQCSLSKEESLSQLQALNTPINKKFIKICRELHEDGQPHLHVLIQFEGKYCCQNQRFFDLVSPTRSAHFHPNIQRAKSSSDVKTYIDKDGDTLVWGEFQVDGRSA
Procedure: as §1

[9] = test system: T9, Rep nickase domain of tomato yellow leaf curl virus
T9 sequence (residues 1-136, tag not shown): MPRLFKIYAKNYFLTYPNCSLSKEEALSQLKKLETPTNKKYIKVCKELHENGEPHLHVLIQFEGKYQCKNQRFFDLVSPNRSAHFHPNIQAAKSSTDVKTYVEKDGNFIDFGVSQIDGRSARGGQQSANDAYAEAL
Procedure: as §1

[10] = test system: T10, Rep nickase domain of wheat dwarf virus
T10 sequence (residues 1-137, tag not shown): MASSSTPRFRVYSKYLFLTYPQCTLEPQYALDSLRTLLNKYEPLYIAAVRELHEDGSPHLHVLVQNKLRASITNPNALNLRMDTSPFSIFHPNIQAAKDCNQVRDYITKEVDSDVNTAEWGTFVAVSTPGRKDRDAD
Procedure: as §1

Sequence	uncleaved DNA left (log2) [1]	uncleaved DNA left (log2) [2]	uncleaved DNA left (log2) [3]	uncleaved DNA left (log2) [4]	uncleaved DNA left (log2) [5]	uncleaved DNA left (log2) [6]	uncleaved DNA left (log2) [7]	uncleaved DNA left (log2) [8]	uncleaved DNA left (log2) [9]	uncleaved DNA left (log2) [10]
ATTCATT	-3.46	-3.08	-0.227	-2.45	-0.0748	-0.676	-3.84	-0.101	0.0289	-0.0977
TGCTTGT	-0.14	-0.201	-0.105	-0.309	-0.139	-0.683	-0.493	-0.0714	-0.104	-0.0909
CCCATCG	-0.098	-0.0437	-0.708	0.315	-0.00963	-0.841	0.0968	-0.309	0.0134	-0.143
ACGGCGT	-0.00415	-0.183	-0.783	-0.181	-0.0679	-0.523	0.051	-0.108	-0.0729	-0.195
TAGGAGG	0.083	0.0659	0.121	0.728	-0.0204	0.219	0.103	0.131	-0.0112	0.0881
CTCTTCA	-0.163	0.0389	-0.0899	-1.37	0.015	-0.647	-0.179	-0.189	-0.047	0.0852
GGACGCT	-0.0796	-0.0034	0.628	1.44	-0.191	1.98	0.0187	-0.178	-0.115	0.0399
CGTAAGG	0.117	0.0647	0.19	0.875	0.0791	0.836	0.0836	0.17	0.0418	0.0416
TTAAAAT	0.0609	0.0653	0.159	-1.19	0.0177	-0.0974	-0.16	0.0725	-0.0112	0.0114
TGCTCGT	-0.106	-0.159	-0.189	-0.67	-0.0963	-0.699	-0.232	-0.185	-0.0863	-0.122
ACTGGCA	0.165	0.183	-0.13	0.187	0.182	-0.211	0.149	0.195	0.166	0.202
GGGTAGG	0.149	0.132	0.801	1.76	0.114	2.19	0.261	0.139	0.0609	0.203
CTCAAAC	0.131	0.0701	0.0519	-0.403	-0.00538	-0.725	0.103	-0.0444	0.00116	0.0105
GATTGTT	-2.9	-2.85	-0.805	-1.87	-1.43	-0.446	-3.38	-0.695	0.167	-0.473
GATTCGG	0.0039	0.0381	0.467	1.31	-0.0244	1.55	0.0919	0.126	0.00244	0.0518
CCCGATA	-0.15	0.0264	0.0152	-0.651	0.113	-0.412	0.102	0.0903	0.0124	0.0395
AATGGGT	0.107	0.141	0.404	1.67	0.159	1.81	0.363	0.245	-0.0558	0.15
GAACGCT	0.158	0.0304	-0.182	-1.62	0.0678	-0.182	-0.0199	0.0417	0.059	-0.0515
GCGATTT	0.205	0.149	0.183	0.301	0.123	1.35	0.0592	0.162	0.106	0.226
CAACGCA	0.133	0.11	-0.237	-0.694	0.0676	-0.653	-0.0105	-0.0549	0.0158	-0.0123

Sequence	uncleaved DNA left (log2) [1]	uncleaved DNA left (log2) [2]	uncleaved DNA left (log2) [3]	uncleaved DNA left (log2) [4]	uncleaved DNA left (log2) [5]	uncleaved DNA left (log2) [6]	uncleaved DNA left (log2) [7]	uncleaved DNA left (log2) [8]	uncleaved DNA left (log2) [9]	uncleaved DNA left (log2) [10]
GGTAATG	0.0494	0.0826	0.515	1.2	-0.0311	1.43	0.205	0.00869	0.0285	0.0634
TGCGCTG	0.00768	0.00813	0.05	0.551	-0.0769	1.65	0.1	0.0278	-0.0784	-0.0611
CACAAAC	0.111	-0.057	0.00568	-0.544	0.165	-0.751	0.19	0.0583	-0.000788	0.156
CATAATG	-0.0209	-0.0278	-0.71	-0.812	0.0798	-1.25	0.0248	-0.142	-0.104	-0.227
CCCTCCG	-0.0263	0.000382	-0.792	-0.0459	-0.126	-0.837	-0.0174	-0.0275	-0.101	-0.157
ACCTAGT	-1.03	-0.106	-0.648	-0.958	-0.0595	-1.27	-3.16	-0.162	-0.144	-0.254
GACCAAC	0.0051	0.0318	0.105	-0.0249	-0.018	0.276	-0.0104	-0.00597	-0.047	0.0834
TGCCCGT	0.0592	-0.0316	0.0692	-0.249	-0.0148	-0.583	-0.00535	-0.0613	0.0284	0.0388
ACACCAG	-0.053	-0.0365	-0.608	-0.0612	-0.0298	-1.07	0.0907	-0.071	-0.0706	-0.12
TTTCGTA	-0.102	0.0691	-0.0694	-0.816	0.0187	-0.747	-0.252	-0.0414	-0.0995	0.0127
TGGGACT	-0.0193	0.0399	0.888	2.05	0.0487	2.26	0.223	0.103	0.00362	0.248
AGAGCCG	-0.0103	0.0447	-0.392	-0.127	-0.0825	-0.79	0.116	0.0306	-0.0487	-0.0872
CGCTTCT	-0.902	0.00431	-0.124	-1.76	0.0607	-0.589	-2.39	-0.0482	0.0555	-0.0244
TTGCTGT	0.0905	-0.0697	-0.429	-0.458	0.025	-0.668	0.0437	-0.135	-0.0512	-0.091
TCATCTA	-0.175	0.00521	0.0299	-1.27	-0.0514	-0.498	-0.217	-0.0745	-0.068	0.0793
TATCTGA	-0.0255	-0.0172	0.0228	0.115	0.0489	0.486	0.0428	-0.0267	0.00317	0.00155
TAGGCGC	-0.103	-0.153	-0.867	-0.937	-0.0955	-0.904	-0.118	-0.0831	-0.182	-0.335
CTATTCT	-2.91	-0.0888	-1.38	-2.34	-0.039	-1.26	-2.94	-0.254	0.0261	-0.261
TTGTAAC	0.0428	-0.083	0.0395	-1.18	0.115	-0.0712	-0.0369	-0.075	0.13	-0.0585
ACGCATG	-0.187	0.0143	-0.51	-0.367	-0.182	-1.15	0.0658	-0.0388	0.00765	0.00447

Sequence	uncleaved DNA left (log2) [1]	uncleaved DNA left (log2) [2]	uncleaved DNA left (log2) [3]	uncleaved DNA left (log2) [4]	uncleaved DNA left (log2) [5]	uncleaved DNA left (log2) [6]	uncleaved DNA left (log2) [7]	uncleaved DNA left (log2) [8]	uncleaved DNA left (log2) [9]	uncleaved DNA left (log2) [10]
GATCGGT	-0.0349	-0.138	0.241	0.633	-0.0605	0.982	-0.105	-0.076	0.0404	-0.05
GCTTAAA	0.000855	0.11	0.0543	0.582	-0.0301	0.498	0.175	0.107	0.0462	0.0756
AAATAGC	0.155	0.000623	-0.916	-1.14	0.122	-1.44	0.139	-0.0518	0.043	-0.0403
TGGAATG	0.0434	0.00933	-0.0167	0.383	0.0285	0.514	0.00116	-0.0858	0.0379	0.113
CATGAAG	0.0904	-0.1	-0.648	0.582	0.0508	-0.275	0.178	-0.013	0.0458	-0.0998
CATCACT	-0.173	-0.00492	-0.532	-2.95	-0.016	-0.992	-1.47	-0.0965	-0.0265	-0.187
ACGTGAA	-0.134	-0.133	-0.211	-0.00482	0.0483	-0.394	-0.153	-0.137	0.00737	0.000419
CCCCACG	-0.0335	0.238	-0.78	-0.254	-0.00471	-0.885	0.077	0.113	0.00378	0.0146
TATAGGT	0.062	-0.058	0.432	0.966	0.0329	1.62	-0.0443	0.0641	-0.157	0.0422
AAGGCCA	0.0546	0.148	0.0451	-0.202	-0.0181	0.331	-0.127	0.175	0.0947	0.0386
CGTAAAT	-0.0135	-0.0573	-0.0397	-0.187	0.0181	-0.208	-0.574	-0.0597	0.0229	0.0137
CTTATCT	-0.161	-0.00647	0.126	-1.57	-0.0669	-0.298	-0.364	-0.157	0.0781	0.0753
GCGAATC	-0.00574	0.15	0.109	0.531	0.0351	0.658	0.0771	0.00696	0.0912	0.11
TATCTGG	0.11	0.0461	0.362	0.672	0.048	0.673	0.148	0.182	-0.0203	0.147
GCGTCTT	-0.403	-0.182	0.0117	-0.347	-0.153	0.998	-2.44	-0.104	0.0254	-0.00355
GGAAACG	-0.0139	-0.0457	-0.429	-0.158	0.133	-0.489	0.253	-0.0168	-0.00779	-0.12
CAGACAT	-0.012	0.18	0.78	1.9	-0.0218	2.07	-0.584	-0.0203	0.0771	0.0843
ACAGTGC	-0.0461	-0.0485	-0.693	-0.264	0.0889	-0.933	0.194	-0.0397	0.0886	-0.139
GATCTCA	0.0384	0.145	0.241	0.141	-0.00887	1.06	0.128	0.118	0.237	0.122
GACGATG	0.0534	-0.0218	0.0396	0.537	-0.00376	0.972	0.0802	-0.0276	-0.127	-0.0945
